# Data from the RNAGym collection of RNA variant scans (doi:10.1073/pnas.2313332121).
# Variants at the background level are over-represented here.
# B1: TPR 5TU (parent)
# chain: GGAUCUUCUCGAUCUAACAAAAAAGACAAAUCUGCCACAAAGCUUGAGAGCAUCUUCGGAUGCAGAGGCGGCAGCCUUCGGUGGCGCGAUAGCGCCAACGUUCUCAACUAUGACACGCAAAACGCGUGCUCCGUUGAAUGGAGUUUAUCAUG
# Variants of: B1
# Test: polymerase ribozyme fitness, log enrichment relative to wild type (log ratio); higher = more active; in vitro selection for triplet polymerase activity
# Outline: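 Genotype fitness is the logarithm of its enrichment divided by wild-type enrichment, using inverse-variance-weighted averages of replicates. That logarithm is base 2. Enrichment was measured by Illumina sequencing of input and output libraries from one triplicate in vitro selection round, with frozen incubation at −7 °C, on PCR-built, transcribed mutant libraries of each subunit of a heterodimeric triplet polymerase ribozyme, retaining genotypes with ≥10 input reads and ≥1 read per output.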
row,Variant,polymerase ribozyme fitness (log ratio)
1,C54U G92A U101G A110G U146A,≤ -4.2
2,U55A A73U C99U U145C,≤ -4.2
3,U56A C57U C87U G88A C108A U146C A150U,≤ -4.2
4,C54G G94A,-1.68
5,U55A G67C C85A G86U G124U,≤ -4.2
6,U55A U146A,-0.393
7,U55A U146G,-0.637
8,C54U G86C C93U C96G G128C,≤ -4.2
9,U55A G67C G86C A113U C125A U148C,≤ -4.2
10,U55C G59A C96A,-3.02
11,C54U A66U C85U,≤ -4.2
12,C54U C93U A98G,-1.41
13,C54G C95G,-2.56
14,U55C U61A U82A,-2.36
15,U55A C87U C93U,-4.13
16,U55A C87U C93G,≤ -4.2
17,U55A G84C A113C C114A C132U,≤ -4.2
18,C54U U102G U135G A142C,≤ -4.2
19,C54G G59U A60U C96G G133U U144G,≤ -4.2
20,C54U U134C A138U,≤ -4.2
21,C54G C93U C95G,≤ -4.2

row,Variant,polymerase ribozyme fitness (log ratio)
1,U55A C57U G74U C93U,≤ -4.2
2,C54G C95U U104G U130G U139A,≤ -4.2
3,U55G U82C C93A A98U C105U G126C A142C,≤ -4.2
4,U55A G86U A91U,≤ -4.2
5,U56A C69U G71C C79U A89U A91G C132U,≤ -4.2
6,U55G A60G G133U G136C,≤ -4.2
7,U55G A91U,≤ -4.2
8,U56A C72G U82G C85U G86A A89G C96G U101A A119G A120C,≤ -4.2
9,C54G G84A G88C U101G,≤ -4.2
10,C54G U82G G83U G94A C99A A122G,≤ -4.2
11,U55A C79A C99U G141C,≤ -4.2
12,U55G A138C,≤ -4.2
13,U55A U82C C95G A107G G136C,≤ -4.2
14,U55G C76G G92C,≤ -4.2
15,U55A C87A A137C,≤ -4.2
16,U55G C72G G143U,≤ -4.2
17,U55A A73G G80U G88C A91C A98C A121G U144A U151C,≤ -4.2
18,U55G G80U C108G G124A,≤ -4.2
19,U55A G74A C85G C116G G140U,≤ -4.2
20,U55G C85A A137G,≤ -4.2
21,U55G G88U G117C,≤ -4.2

row,Variant,polymerase ribozyme fitness (log ratio)
1,C54U A115U,-2.4
2,U55G A98G,-0.84
3,C54U G84A G92U U144A,-1.38
4,U55A G81C G84U C116A,-2.11
5,C54G G83U U127G,≤ -4.2
6,C54G C87A C96G G100A G117C U144A A147C A150G,≤ -4.2
7,C54G U78A C87U C96U G140A,≤ -4.2
8,U55A G86C A150C,≤ -4.2
9,U55G A91G U111G G141A U145G,≤ -4.2
10,U55A G88A C103U A142U,≤ -4.2
11,U55A G71U G117A,-3.07
12,C54U G68C A73G G86C G92A A106G G133A,≤ -4.2
13,C54U G58C C75G A89G A142U,≤ -4.2
14,U55A G92A G143U,≤ -4.2
15,C54G U55A U101G A115G G133U,≤ -4.2
16,U55A C76U C85U A91G A107G C123G C125U U134G,≤ -4.2
17,U55G C87U G92A U101G G143U,-3.33
18,C54U C76A C87G A89G U145C,≤ -4.2
19,U55A A60C G62A U101C U135A A137G G140U,≤ -4.2
20,U55A G94C A121U U148G,≤ -4.2
21,U55C C76G G81A C87U G140C U151A,≤ -4.2

row,Variant,polymerase ribozyme fitness (log ratio)
1,U55A G88A C131U,≤ -4.2
2,U55A G83U C108U G128A,≤ -4.2
3,C54U U78A A98U A113G C116G,≤ -4.2
4,C54U A66G C72U G81C C96A A107G G133U U145A,≤ -4.2
5,C54U G84C G100A G117A G126A,≤ -4.2
6,C54U G83A A115U C118U G140U,≤ -4.2
7,C54U C95U G133C,-2.19
8,U56A A73U C87A A142C,≤ -4.2
9,U55G G74U C76A G94C G136C G152U,≤ -4.2
10,C54U C72G C85G C118U G141C,≤ -4.2
11,U55A A107C,≤ -4.2
12,U55G A91U C116G C123A G133C,≤ -4.2
13,U55A A137G G141A,-1.96
14,U55G U82A A91C C95A,≤ -4.2
15,U55A G58U C93G,-3.78
16,C54U G71A A97U C105U A106C,≤ -4.2
17,C54G G83U G141U,-1.56
18,U56A C75A G86C A98U,≤ -4.2
19,U55A C79G G128C,≤ -4.2
20,C54U A64C,≤ -4.2
21,U55A A89C A119C,-0.892
